# Results taken from PubChem BioAssay AID1508623 (National Center for Advancing Translational Sciences (NCATS), 2021).
# The campaign covered roughly 48,000 compounds. About 450 (0.94%) were called active. Another 19% or so got no clear call; they are omitted. Calls come from the whole dose curve; as a rule, active = well fitted inhibition curve with a large enough effect; inconclusive = small, poorly fitted or top-dose-only effect; inactive = no such curve, though single readings can be large or run the other way. The list shows a part of the results.
# Assay: Primary qHTS for Identification of Small Molecule Inhibitors of Huntingtin Promoter Activity; note: nearly all actives have a fitted effect of over 50% in size
# Details: HEK293 HTT promoter firefly luciferase reporter (activity 0% = vehicle and -100% = no light), 24 h; series mostly up to 57.5 µM; activity change, negative = inhibition: at the top concentration
# Procedure, shortened: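 Firefly luciferase signal from promoter-reporter HEK293 cells was scaled between vehicle (0%) and zero RLU (-100%). Compounds were tested at final concentrations of up to 57.5 uM over 24 h at 37 degrees C. PTC124 at 50 uM final served as control inhibitor.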
# Potency is the fitted concentration of half-maximal effect.
Structure (SMILES),"activity change, negative = inhibition",Potency
CCCn1cc(S(=O)(=O)c2ccc(C)cc2)c(=O)c2cc(OC)c(OC)cc21,inactive: -20.3%,–
COc1cccc(NC(=O)C(=O)NCCc2csc(-c3ccc(C)cc3)n2)c1,inactive: 41.3%,–
COc1ccc(C2=C(C)C(N3CCC(C(=O)Nc4cc(C)ccc4C)CC3)=NS2(=O)=O)cc1,inactive: -18.5%,–
COC(=O)c1ccc(Cl)cc1NC(=O)NCc1c(-n2cccc2)sc2c1CCCC2,inactive: -8.85%,–
CCOc1ccc(C(=O)Nc2ccc(C(=O)OCc3cc(=O)n4ccsc4n3)cc2)cc1,inactive: 5.3%,–
CCOC(=O)c1ccc(NC(=O)c2csc3c2CCCC3)cc1,inactive: 27.7%,–
O=C(Nc1cccc2cccnc12)c1cccc2ccccc12,inactive: 41.5%,–
COc1cccc(N2CCN(C(=O)c3cc4c(=O)n(Cc5cccs5)ccc4nc3C)CC2)c1,inactive: -27%,–
Cc1ccc(CNC(=O)Cn2ncc3c([nH]c4ccc(C)cc43)c2=O)cc1,inactive: 5.52%,–
COc1ccccc1CCNC(=O)Cc1c(C)c2cc3c(C(C)(C)C)coc3c(C)c2oc1=O,inactive: -10%,–
COc1ccc(CCNC(=O)c2ccc(-n3c(C)cc4c3CCCC4)cc2)cc1OC,inactive: 13.1%,–
CCCc1cc(=O)[nH]c(SCc2nc(-c3ccc(C)cc3)no2)n1,inactive: -3.54%,–
Cc1cccc(NC(=O)Cn2cnc(S(=O)(=O)N3CCCC3)c2)c1C,inactive: -32.8%,–
CC(C)Oc1ccc(CNC(=O)Nc2ccc3c(c2)N(C)C(=O)c2ccccc2S3)cc1,–,active: 25.1 µM
CCCSc1ncc(Cl)c(C(=O)Nc2c(C(=O)Nc3ccccc3)oc3ccccc23)n1,inactive: -4.46%,–
O=C(OCC1CCCO1)c1ccc2c(c1)N(Cc1cccc(Cl)c1)C(=O)c1ccccc1S2(=O)=O (stereo unspecified),inactive: -1.01%,–
Cc1ccc(NC(=O)NCCOCCn2c(=O)oc3ccccc32)cc1F,inactive: -7.41%,–
O=C1O[C@H](CO)[C@@H](O)[C@H](O)[C@H]1O,inactive: -0.794%,–
Cn1c(=O)c2c(ncn2CC(=O)O)n(C)c1=O,inactive: 6.12%,–
Cc1cccc(NC(=O)c2c(NC(=O)c3ccccc3)sc3c2CCCC3)c1,inactive: -1.05%,–
Cc1cc(C)c2c(n1)nn1c(C)c(CCC(=O)NCc3ccccc3Cl)c(C)nc21,inactive: 17.3%,–
COC(=O)c1c(C)sc(-c2c(-c3ccc4c(c3)OCCO4)[nH]c3[nH]c(=O)[nH]c(=O)c23)c1O,inactive: 0.168%,–
CCOc1ccc(-c2cc3nc(C4CCN(C(=O)OC(C)(C)C)CC4)c(C(=O)Nc4ccc(C)cc4Cl)cn3n2)cc1,inactive: -19.6%,–
O=S(=O)(c1ccc(Br)cc1)c1nnn2c1nc(Nc1cccc(C(F)(F)F)c1)c1sccc12,inactive: -7.27%,–
CN1CCSc2ccc(C(=O)NCc3ccccc3F)cc21,inactive: 37.4%,–
COc1cc(C(=O)Nc2nc3c(s2)Cc2c(Br)ccc(OC)c2-3)cc(OC)c1OC,inactive: -16.4%,–
